The campaign covered roughly 110,000 compounds. About 230 (0.21%) showed an effect of 50% or more. This is one part of the list.
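Also: 30 min substrate incubation versus DMSO and 10 µM JCP410 controls.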

Chain of DPAP1 (Q8IIJ9 whole entry, looked up): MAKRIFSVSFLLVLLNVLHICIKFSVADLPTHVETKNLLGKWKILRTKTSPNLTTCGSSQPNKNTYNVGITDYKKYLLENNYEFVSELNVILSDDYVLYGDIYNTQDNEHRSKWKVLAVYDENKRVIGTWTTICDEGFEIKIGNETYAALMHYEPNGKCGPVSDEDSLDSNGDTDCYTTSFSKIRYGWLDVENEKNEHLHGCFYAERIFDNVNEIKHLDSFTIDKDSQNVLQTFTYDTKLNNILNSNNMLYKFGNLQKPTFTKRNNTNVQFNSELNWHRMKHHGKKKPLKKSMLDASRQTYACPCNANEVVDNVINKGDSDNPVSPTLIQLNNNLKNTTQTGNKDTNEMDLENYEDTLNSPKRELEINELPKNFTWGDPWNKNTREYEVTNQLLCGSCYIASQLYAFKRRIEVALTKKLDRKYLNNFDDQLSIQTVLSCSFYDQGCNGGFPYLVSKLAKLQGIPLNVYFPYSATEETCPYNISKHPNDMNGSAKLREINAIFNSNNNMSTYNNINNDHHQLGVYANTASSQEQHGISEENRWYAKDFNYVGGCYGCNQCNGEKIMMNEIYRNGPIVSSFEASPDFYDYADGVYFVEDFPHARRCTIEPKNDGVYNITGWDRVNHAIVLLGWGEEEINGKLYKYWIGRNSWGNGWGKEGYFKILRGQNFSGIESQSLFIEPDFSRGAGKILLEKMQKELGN

This assay addresses DPAP1 (Plasmodium falciparum, UniProt Q8IIJ9). Description: primary screen, percent inhibition; read by cleavage of a fluorogenic dipeptide substrate; higher = more effect of the substance. More on the design: species or system P. falciparum D10 trophozoite lysates; single well.
With `COc1cc(C2C(C#N)=C(N)N(c3ccc(C)cc3)C3=C2C(=O)CCC3)cc(OC)c1OC` (stereo not drawn), the “% Inhibition @ 10 uM” value is listed as -4.12%. For `CCc1ccc(C2=NN(CCC(=O)NC(C)(C)C)C(=O)CC2)cc1`, the “% Inhibition @ 10 uM” value is given as 2.35%. With `COc1ccc(C2=NS(=O)(=O)N(C)C(C(=O)N3CCC4(CC3)OCCO4)=C2)cc1`, the “% Inhibition @ 10 uM” value came out at 3.92%. The same measure for `O=C(C1CCCN(Cc2ccncc2)C1)N1CCc2ccccc2C1` (stereo not drawn): -2.98%. On to `CCCn1c2ccccc2c2cnn(CC(=O)NC3CCCC(C)C3C)c(=O)c21` (stereo not drawn), for which the “% Inhibition @ 10 uM” value stood at 4.39%. For `O=C(CC12CC3CC(C1)CC(CC(=O)N1CCOCC1)(C3)C2)N1CCOCC1`, the “% Inhibition @ 10 uM” value amounted to 5.04%. For the compound `O=C1N=C(N2CCOCC2)S/C1=C/c1ccc(O)cc1`, the “% Inhibition @ 10 uM” value was -0.99%. The same measure for `CCN(CC)C(=O)Cc1cn(C)c2ccccc12`: -6.29%. For the compound `Cc1ccc(/C=C2\C(=O)ON=C2c2ccccc2)o1`, the “% Inhibition @ 10 uM” value was found to be 21.3%. As to `OC12CCCCC1C(c1ccc(F)c(Br)c1)NCC2` (stereo not drawn), the “% Inhibition @ 10 uM” value was -5.48%. The same measure for `Cc1c(CN2CC3(C)CC2CC(C)(C)C3)c(=O)n(-c2ccccc2)n1C` (stereo not drawn): -2.21%; for `CC1CCN(S(=O)(=O)c2ccc3c(ccn3CC(=O)N3CCc4ccccc4C3)c2)CC1`: -3.34%.

As for `CC(C(=O)NCc1ccccc1)N(c1ccccc1)S(C)(=O)=O` (stereo not drawn), the “% Inhibition @ 10 uM” value was 3.7%. For the compound `CCc1ccc(C2CC(=O)NC3=C2C(=O)CC(C)(C)C3)cc1` (stereo not drawn), the “% Inhibition @ 10 uM” value is reported as -5.2%. With `O=C(COCc1cc(-c2ccc3c(c2)OCO3)on1)N1CCN(C(=O)c2ccco2)CC1`, the “% Inhibition @ 10 uM” value stood at 8.8%. The same measure for `CC1CCN(C(=O)CCCOc2ccc(Cl)cc2Cl)CC1`: 3.83%. `CCOC(=O)C1=C(CSc2nc3cccnc3[nH]2)NC(=O)NC1c1cc(C)ccc1C` (stereo not drawn): the “% Inhibition @ 10 uM” value is -0.834%. Take `C#CC(C)(CC)NS(=O)(=O)c1cc(OC)c(Cl)cc1OC` (stereo not drawn): the “% Inhibition @ 10 uM” value came to 0.324%.

Consider `CCN1C(=O)c2cccc3c(Cl)ccc(c23)C1=O`, for which the “% Inhibition @ 10 uM” value is recorded as 0.526%. The same measure for `CC(C)(C)S(=O)(=O)c1ccc(S(=O)(=O)C(C)(C)C)s1`: 0.00178%; for `CC(C)Cn1cc(NC(=O)NCC2CCN(CCc3ccc(F)cc3)CC2)c2ccccc2c1=O`: -5%; for `CCOc1ccccc1/C=C(\C#N)c1nc(-c2ccc(C)cc2)cs1`: -2.42%. The same measure for `CC(=O)Nc1ccc(N2C(=O)c3cc(Cl)c(Cl)cc3C2=O)cc1`: 3.17%; for `O=Cc1cn(CC(=O)NCC2CCCO2)c2ccccc12` (stereo not drawn): 2.35%. In the case of `CCNS(=O)(=O)c1ccc(NC(=O)Cn2nc(C(F)(F)F)cc2C2CC2)cc1`, the “% Inhibition @ 10 uM” value was -9.57%.

On to `O=C(Nc1c2c(nn1-c1cccc(Cl)c1)CSC2)c1ccc(S(=O)(=O)N2CCCC2)cc1`, for which the “% Inhibition @ 10 uM” value was -2.38%. The same measure for `COc1ccc(CN2CCN(c3ccccc3Cl)CC2)cc1C`: -0.969%. Consider `CCCCNC(=O)CN(c1ccc(Br)cc1)S(=O)(=O)c1ccccc1`, for which the “% Inhibition @ 10 uM” value was -3.83%. On to `O=C(CCN1C(=O)S/C(=C\c2ccc(Cl)cc2)C1=O)Nc1ccc(C(=O)O)cc1`, for which the “% Inhibition @ 10 uM” value is 11.7%. The same measure for `CC(C)C(=O)NCCc1nc2ccccc2n1Cc1ccccc1F`: -1.74%; for `CCOc1ccc(C(=O)NCc2cccnc2)cc1`: 11.8%. The same measure for `COc1ccc2c(CNCCCc3ccccc3)c(C(=O)O)[nH]c2c1`: -2.39%. The same measure for `Cc1nc2ccn(Cc3cccs3)c(=O)c2cc1C(=O)NCc1ccccc1F`: -1.56%; for `O=C(CCN1CCCCC1)c1ccccc1`: 7.15%. Consider `Cc1ccsc1CCNC(=O)CCNS(=O)(=O)c1ccc2nc(O)ccc2c1`, for which the “% Inhibition @ 10 uM” value is listed as 3.25%. As to `CCOC(=O)c1sc(N2C(=O)C(O)=C(C(=O)c3ccccc3)C2c2ccc(OC)cc2)nc1C` (stereo not drawn), the “% Inhibition @ 10 uM” value was determined as 0.487%. The same measure for `O=C(NCCC1=CCCCC1)C1CCN(c2nnc(-n3cccc3)s2)CC1`: 0.942%; for `NC(=O)C1CCN(C(=O)CSc2c3c(nc4ccccc24)CCCC3)CC1`: 0.317%; for `COC(=O)CC(N)c1ccccc1` (stereo not drawn): -0.239%. The same measure for `Cc1sc(NC(=O)CC(C)(C)CC(=O)Nc2sc(C)c(C)c2C(=O)O)c(C(=O)O)c1C`: -6.02%; for `CN(CCCNC(=O)c1ccc2c(c1)nc(S)n1c3ccccc3nc21)Cc1ccccc1`: 8.59%; for `COc1ccc2[nH]c3c(=O)n(CCC(=O)NCCc4ccc(OC)c(OC)c4)c(=S)[nH]c3c2c1`: -7.65%.

For `CC(C)c1ccc(/C=C(/C#N)c2nc(-c3cccs3)cs2)cc1`, the “% Inhibition @ 10 uM” value was -0.856%. For `COc1ccc(S(=O)(=O)N2CCC(C(=O)NCCC3=CCCCC3)CC2)cc1`, the “% Inhibition @ 10 uM” value was found to be 5.09%. Regarding `Nc1ccc(NS(=O)(=O)c2ccccc2)cc1`, the “% Inhibition @ 10 uM” value is 1.9%. The same measure for `O=C(NCc1ccccn1)c1cc2c(s1)-c1ccccc1S(=O)(=O)C2`: -5.81%. The same measure for `CC(C)C[C@H](NC(=O)c1cc([N+](=O)[O-])cs1)C(=O)NCC#N`: -4.72%.

For the compound `CCOc1ccc2nc(NC(=O)Nc3cn(C)c(=O)c4ccccc34)sc2c1`, the “% Inhibition @ 10 uM” value amounted to 7.22%. For `Cc1ccc(Nc2cc(Br)c3ncnc4c3c2C(=O)c2ccccc2-4)cc1`, the “% Inhibition @ 10 uM” value is reported as -2.03%. Consider `O=C(CC(Nc1ccc2ncccc2c1)c1ccccc1)c1ccccc1` (stereo not drawn), for which the “% Inhibition @ 10 uM” value worked out at 2.55%. The same measure for `CCN(CC)CCNC(=O)COc1ccccc1O`: -1.54%; for `CC(NC(=O)CSc1nc(=O)cc(N)n1-c1ccccc1)c1ccccc1` (stereo not drawn): 7.16%; for `COCCN1C(=O)C(O)=C(C(=O)c2ccc3c(c2)CC(C)O3)C1c1cccc(Oc2ccccc2)c1` (stereo not drawn): 1.78%. The same measure for `CCc1cc(CC)c(CO)c(CC)c1/C=N/O`: 2.46%. For the compound `CC(NC(=O)Cn1c(=O)[nH]c2ccsc2c1=O)c1ccccc1` (stereo not drawn), the “% Inhibition @ 10 uM” value stood at 2%. For `O=C1NC(=O)C(Cc2ccccc2)C(=O)N1`, the “% Inhibition @ 10 uM” value is 3.32%. As to `CCc1nc2ccccc2c(NC(=O)CNC(C)(C)CO)c1C`, the “% Inhibition @ 10 uM” value worked out at 3.81%. The same measure for `Cc1ccc(S(=O)(=O)N(CC(=O)N2CCc3ccccc3C2)c2cccc(C)c2)cc1`: -12.5%.

As to `O=C(NCc1ccco1)c1cc2cc3ccc(Cl)cc3nc2o1`, the “% Inhibition @ 10 uM” value turned out to be 1.9%. The same measure for `N#CCNC(=O)C(Cc1c(F)cccc1F)NC(=O)OCc1ccccc1` (stereo not drawn): 2.86%; for `Cc1cc(C)c(CN2CCCN(Cc3ccccc3Cl)S2(=O)=O)c(C)c1`: -1.41%. Take `CCc1cc2c(cc3c(=O)n(CC(=O)NC4CCCCCC4)ncn32)s1`: the “% Inhibition @ 10 uM” value is reported as 3.29%. Take `CN1CCN(C2CC(=O)N(c3ccc(N4C(=O)CC(N5CCN(C)CC5)C4=O)cc3)C2=O)CC1` (stereo not drawn): the “% Inhibition @ 10 uM” value is -1.74%. With `O=C(Nc1cccc(F)c1)[C@@H]1C[C@@H]1c1ccccc1`, the “% Inhibition @ 10 uM” value was -2.03%. The same measure for `CCOc1ccc(C(=O)Nc2sc(C)c(CC)c2C(N)=O)cc1`: 3.53%; for `CCOC(=O)/C=C(\C)N1N=C(c2cccs2)CC1c1ccc(F)cc1` (stereo not drawn): -0.424%; for `Cc1ccc(CNc2ccc3nnc(-c4ccccc4)n3n2)cc1`: 1.89%. As for `CCOC(=O)C1=C(CC)OC(N)=C(C#N)C1c1ccc(Br)cc1` (stereo not drawn), the “% Inhibition @ 10 uM” value is given as 1.96%. The same measure for `CCCCn1c(N)c(C#N)c2nc3ccccc3nc21`: -0.294%; for `COc1ccccc1Nc1nc(-c2ccc(C)cc2)cs1`: 6.86%; for `O=C(NCCCc1ccccc1)NC1CCCCC1`: -0.132%. On to `Cc1ccc(-c2csc(/C(C#N)=C/c3ccccc3Cl)n2)c(C)c1`, for which the “% Inhibition @ 10 uM” value is listed as 0.98%. The same measure for `COc1ccccc1/C=C1\N=C(SC)SC1=O`: 2.56%. The same measure for `CCOC(=O)c1cc(C(C)(C)C)c(O)c(C(C)(C)C)c1`: 2.17%; for `CC(CCc1ccccc1)NC(=O)C(=O)NC1CCCCC1` (stereo not drawn): -5.33%; for `COc1ccccc1NC(=O)CCCOc1ccc(Cl)cc1C`: 1.03%. The same measure for `COc1ccc(-c2nc(N)n(C(=O)c3ccco3)n2)cc1`: 2.32%; for `COc1cc2cc(C(N)=O)c(N)nc2cc1OC`: -2.02%. Regarding `CN(C)S(=O)(=O)c1cccc(-c2csc(-c3ccccc3)n2)c1`, the “% Inhibition @ 10 uM” value is given as -0.0619%. The same measure for `Cc1ccc(CNC(=O)c2c(C)nn(-c3ccccc3)c2-n2cccc2)cc1`: -3.35%; for `O=C(CN1C(=O)c2ccccc2C1=O)Nc1cccc(F)c1`: -2.6%.

In the case of `CCOC(=O)C1CCN(Cc2ccccc2)CC1`, the “% Inhibition @ 10 uM” value is given as -3.56%. The same measure for `Cc1cc(O)n2nc(NC(=O)CC(C)C)nc2n1`: 3.66%; for `Cc1cc(-c2ccc(C)c(S(=O)(=O)N3CCN(C4CCCCC4)CC3)c2)[nH]n1`: 1.11%. The same measure for `Cc1c(C)n(C)c2ccc(C(=O)NCCCN3CCOCC3)cc12`: 6.03%; for `CCOc1ccccc1N(CC(=O)O)S(=O)(=O)c1ccc(C)cc1`: -0.0925%. The same measure for `C=Cc1ccc(CSc2ncc(C(=O)OCC)c(N)n2)cc1`: 0.776%; for `COc1ccc(NC(=O)c2ccc(OC)c(OC)c2)cc1`: 0.317%. As for `Cn1cnc([N+](=O)[O-])c1C(=O)NCCCO`, the “% Inhibition @ 10 uM” value is -0.424%. The same measure for `Cc1nc(=O)c(-c2ccccc2)c(C)n1-c1ccc(Cl)cc1Cl`: -12.4%; for `COc1cccc(S(=O)(=O)NCc2ccc(C(=O)N3CCCCC3)cc2)c1`: -3.37%; for `COc1ccc(C=C2C(=O)OC(C)(c3ccccc3)OC2=O)c(OC)c1` (stereo not drawn): 5.06%.

Regarding `CCNCC(O)COc1cc(C)c(Cl)c(C)c1` (stereo not drawn), the “% Inhibition @ 10 uM” value is reported as 11%. Regarding `CC(=O)N1c2ccccc2C2(O)C1SC1=[N+]2CCCCC1` (stereo not drawn), the “% Inhibition @ 10 uM” value was 9.94%. With `Nc1ccc2oc(-c3ccccc3)nc2c1`, the “% Inhibition @ 10 uM” value is reported as -2.35%. As to `O=C(NCc1ccccc1F)c1nc(CS(=O)(=O)c2ccccc2)no1`, the “% Inhibition @ 10 uM” value is on record as -1.05%. As to `Cc1nc2c(C(=O)NCc3ccccn3)cnn2c(C)c1Cc1ccccc1Cl`, the “% Inhibition @ 10 uM” value is -2.14%. For the compound `CC(=O)N(CC(O)COc1cccc2ccccc12)C(C)C` (stereo not drawn), the “% Inhibition @ 10 uM” value is -2.32%. The same measure for `COCCNC(=O)C1CC(c2ccc(F)cc2)=NO1` (stereo not drawn): 1.24%; for `COc1ccc(CN2C(=O)C3C4C=CC(C4)C3C2=O)cc1` (stereo not drawn): -2.07%. The same measure for `CN(C)c1ccc(/C=C/CN2CCSCC2)cc1`: 0.217%; for `CCNc1nc(NCC)nc(Oc2ccccc2C(=O)OC)n1`: 2.26%.
